Data from PubChem BioAssay AID1508642 (National Center for Advancing Translational Sciences (NCATS), 2021).
In all, about 43,000 compounds went through this assay and about 200 (0.47%) were called active. Not shown: some 12% with an inconclusive outcome. Calls follow the shape of the dose curve; as a rule, active = well fitted cell-killing curve with a large enough effect; inconclusive = small, poorly fitted or top-dose-only effect, or effect the other way; inactive = flat fitted curve, though single readings scatter. The list shows a part of the results.

test: Cell viability qHTS assay in S16 Pmp22-F2sN cells; settings: S16 Pmp22-F2sN Schwann cells viability, CellTiter-Glo, 24 h; series mostly up to 57.5 µM; activity change, negative = cytotoxicity: at the top concentration; also: nearly all actives have a fitted effect of over 65% in size
Summary of the method: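 Viability was measured by CellTiter-Glo luminescence (15 min, room temperature). This followed 24 h at 37 °C of compound exposure (23 nL pin transfer) in S16 Pmp22-F2sN Schwann cells, 500-1,000 per well.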
% is scaled to controls: 0 for no effect and ±100 for the full control effect.

SMILES	activity change, negative = cytotoxicity
CC(NC(=O)CSc1n[nH]c(-c2ccccc2Cl)n1)c1nc2ccccc2[nH]1 (stereo not given)	inactive: 25%
Cc1ccsc1CN1CCc2nc(Nc3ccccc3)ncc2C1	inactive: 0.375%
CCc1ccc(NC(=O)CSC2=Nc3ccccc3C3=NC(CCC(=O)NCc4ccccc4)C(=O)N23)cc1 (stereo not given)	inactive: 6.83%
CCCCN(C)C(=O)c1cn(C)c2ccc(S(=O)(=O)N3CCC(C)CC3)cc2c1=O	inactive: 6.16%
O=C(Cn1ccc2cc(S(=O)(=O)N3CCCCC3)ccc21)NCCc1ccccc1Cl	inactive: -25.8%
COc1ccccc1NC(=O)Cn1c(=O)n(Cc2ccccc2)c(=O)c2c1c1cc(C)ccc1n2C	inactive: 3.05%
COc1cccc(NC(=O)CCNS(=O)(=O)c2ccc3c(c2)oc(=O)n3C)c1	inactive: 6.59%
CC(=O)c1cccc(NC(=O)c2nc(-c3ccccc3)n(-c3ccccc3)n2)c1	inactive: 4.49%
O=C1CCCc2cc(S(=O)(=O)N3CCCC(C(=O)NCc4ccccc4)C3)ccc2N1 (stereo not given)	inactive: 8.22%
COc1cc2c(cc1OC)n(Cc1cccc(C(F)(F)F)c1)c(=O)n1nc(-c3ccccc3)nc21	inactive: 18.2%
Cc1cc(C)c(NC(=O)CN(C)S(=O)(=O)c2ccc3c(c2)CCC(=O)N3)c(C)c1	inactive: 1.81%
COc1cc2c(cc1OC)C(COc1cccc(C(F)(F)F)c1)N(C(=O)c1ccc(S(=O)(=O)N3CCCC3)cc1)CC2 (stereo not given)	inactive: 3.33%
CCC(C)NC(=O)C1CCN(S(=O)(=O)c2ccc3c(c2)CCCN3C(C)=O)CC1 (stereo not given)	inactive: 1.8%
CCn1cc(C(=O)N2CCN(c3ccc(C)cc3)C(C)C2)c(=O)c2cc(S(=O)(=O)N3CCCC3)ccc21 (stereo not given)	inactive: 4.17%
CCc1ccccc1NC(=O)C(=O)NCCCN1CCOCC1	inactive: 12.3%
Cc1cc(C)c(NC(=O)CCS(=O)(=O)c2cc3c(cc2Cl)NC(=O)CO3)c(C)c1	inactive: 7.73%
O=C(CSCn1nnc2c(=O)[nH]c(Cc3ccc(F)cc3)nc21)Nc1cccc(C(F)(F)F)c1	inactive: 1.61%
CC(=O)Nc1ccc(NC(=O)CCCn2nc(C)c3sc4ccccc4c3c2=O)cc1	inactive: 9.83%
CCOc1ccc(N(C)S(=O)(=O)c2ccc3c(c2)CCCN3C(C)=O)cc1	inactive: -7.93%
CC1CCN(C(=O)c2cc(-c3ccc(Br)cc3)on2)CC1	inactive: -0.306%
CCOc1ccc(CNS(=O)(=O)c2ccc3c(c2)CCCN3C(C)=O)cc1OC	inactive: -8.35%
CCOC(=O)C1CCCN(C(=O)c2nn(-c3ccc(C)cc3)c(=O)n(C)c2=O)C1 (stereo not given)	inactive: -8.86%
CCc1nnc2c(N3CCN(c4cc(Cl)ccc4C)CC3)nc3ccccc3n12	inactive: -0.6%
CCCN(C(=O)c1cc2c(=O)[nH]c3ccc(C)cc3c2s1)c1ccc(CC)cc1	inactive: 23.5%
COc1ccc(-c2noc(COc3cc(C)ccc3C)n2)cc1OC	inactive: -1.7%
